Experimental data reported in PubChem BioAssay AID1508624 (National Center for Advancing Translational Sciences (NCATS), 2021).
Screen size: about 48,000 compounds; about 120 (0.25%) were called active. Roughly 4% stayed inconclusive and do not appear here. Calls follow the shape of the dose curve; as a rule, active = well fitted activation curve with a large enough effect; inconclusive = small, poorly fitted or top-dose-only effect, or another doubt; inactive = no such curve, though single readings can be large or run the other way. This is one part of the list.

Test: Primary qHTS for Identification of Small Molecule Activators of Huntingtin-Antisense Promoter Activity; also: nearly all actives have a fitted effect of over 55% in size
Conditions: HEK293 HTT-AS promoter firefly luciferase reporter, 24 h; series mostly up to 57.5 µM; activity change, positive = activation: at the top concentration
Outline: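 Luminescence was read after Dual-Glo reagent and a 10 min room-temperature incubation. Values were normalized to vehicle (0% activity) and zero RLU (-100% activity). Reporter HEK293 cells had been exposed to compounds (up to 57.5 uM final) for 24 h.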

Activity change, positive = activation, inactive:
COc1cc2nc(-c3cc(F)ccc3O)nc(N[C@@H]3CNC[C@@H]3C(C)(C)O)c2cc1OC 4.67%, COc1cc(NC(=O)c2nc(-c3ccc(Cl)cc3)n3c2CCCCC3)cc(OC)c1OC 10.1% [at 11.5 µM, percent change from vehicle, -100% = no light], O=C(Cc1ccccc1)Nc1sc2c(c1C(=O)Nc1ccccc1Cl)CCCC2 -14.6%, COc1ccc(CNC(=O)c2cc(C3CC3)nc3c2c(C)nn3-c2cccc(Cl)c2C)cc1 -5.77%, Cc1cccc(C(=O)Nc2ccc3nc(SCC(=O)N4CCc5ccccc54)sc3c2)c1 -7.51%, CCn1c(=O)n(-c2ccc3c(c2)OCO3)c2nc(-c3cc(OC)ccc3OC)nc(C(N)=O)c21 -5.19%, COc1ccc(CNC(=O)Cn2ccc3cc(S(=O)(=O)N4CCCC4)ccc32)c(OC)c1 -18.3%, Cc1ccc(CN2CCc3nc(N4CCN(c5ccccc5F)CC4)ncc3C2)s1 -33%, Cc1ccc2oc(=O)c3cc(C(=O)NCc4ccc(Cl)cc4)sc3c2c1 -2.6%, Cc1ccc(NC(=O)C2CCCN2S(=O)(=O)c2cccc3nsnc23)c(Br)c1 (centres undefined) -23.1%, COc1ccc(CNC(=O)c2ccc(NC(=O)N3CCCCc4ccccc43)cc2)c(OC)c1 -8.21%, Cc1cc(SCC(=O)NCc2ccccc2Cl)nc(=O)[nH]1 8.19%, Cc1cccc(-c2nc(C)c(CCNC(=O)C(=O)Nc3c(C)cc(C)cc3C)s2)c1 -11.2%, COc1ccc(-c2csc3nc(-c4ccc(F)cc4)oc(=O)c23)cc1OC -16.3%, C#CCC(Cc1cnc2nc(N)nc(N)c2n1)c1ccc(C(=O)N[C@@H](CCC(=O)O)C(=O)O)cc1 (some centres undefined) 18.7%, Cc1cccc(C)c1NC(=O)CCS(=O)(=O)c1ccc2c(c1)n(C)c(=O)c(=O)n2C -22.2%, Cc1ccc(-c2noc(CSc3nnc(C)n3-c3ccc(F)cc3)n2)cc1 -24.1%, CCN(CC)C(=O)Cn1c(=O)n(CCCCCC(=O)Nc2ccccc2)c(=O)c2sccc21 -0.806%, NC(=O)C(=O)N/N=C/c1ccc([N+](=O)[O-])o1 -0.352%, COC(=O)c1ccccc1NC(=O)Cn1c(=O)cc(-c2ccccc2)c2c(C)nn(C)c21 -7.26%, CCOC(=O)c1sc2ncn(CC(=O)Nc3cc(C)cc(C)c3)c(=O)c2c1C -9.57%, COc1ccc(N2CCN(C(=O)CCc3nnc4n(C)c(=O)c5sccc5n34)CC2)cc1 -8.41%, COc1c(N2CCNC(C)C2)c(F)cc2c(=O)c(C(=O)O)cn(C3CC3)c12 (centres undefined), COc1ccc(-n2c(=O)c3ccc(C(=O)NCc4ccc(C)cc4)cc3n(Cc3ccc(F)cc3Cl)c2=O)cc1 -12.2%, CC1(C)N=C(c2ccc(F)cc2)C(=O)N1CC(=O)Nc1ccccc1Cl -6.8%, Cc1ccc(Cn2c3ccccc3c3cnn(CC(=O)N4CCCCCC4)c(=O)c32)cc1 -18.2%, Cc1ccc(CN2C(=O)CC(c3ccc(Cl)cc3)c3c(C)nn(-c4nc(C)cc(C)n4)c32)cc1 (centres undefined) -37.6%, COc1ccc(-n2nc3c(c2NC(=O)C(=O)NCc2ccccc2)CSC3)cc1 -19.1%, COC(=O)c1cc2oc(C)cc2n1CC(=O)Nc1ccc(OC)c(OC)c1 -13.9%, COC(=O)c1ccc(NC(=O)CSc2nccn2Cc2ccc(Cl)cc2)cc1 -8.3%, CCOc1ccc(-n2c(=O)c3c(C)c(C)sc3n(Cc3c(F)cccc3Cl)c2=O)cc1 -1.3%, Cc1cc(O)c(C(c2ccccc2)N2CCN(c3ccccc3F)CC2)c(=O)n1Cc1ccco1 (centres undefined) 7.26%, CCOC(=O)[C@@](C)(N)Cc1ccc(O)c(O)c1 20.8%, CCC(=O)N1CCc2cc(Br)cc(S(=O)(=O)CCC(=O)NCc3ccc(C)cc3)c21 10.8%, COC(=O)c1sc(S(=O)(=O)N2CCN(c3ccc(OC)cc3)CC2)c(C(=O)OC)c1C -33.6%, COc1ccc(CNC(=O)C(=O)Nc2ccccc2OC)cc1 -15.8% [at 11.5 µM, percent change from vehicle, -100% = no light], COc1ccc(OC)c(NC(=O)CSc2nccn2-c2cc(C)cc(C)c2)c1 -24.5%, COc1cc(NC(=O)CN2C(=O)C(c3ccc(C)cc3)=NC23CCCCCC3)cc(OC)c1 -21.6%, CC(=O)Nc1c(C)nn(-c2ccccc2)c1N1CCC(C(=O)Nc2ccc(Cl)cc2C)CC1 11.8%, Cc1ccc(-c2nc3ccccc3[nH]2)cc1NC(=O)COc1ccc(Cl)cc1Cl -13.8%, O=C(c1ccccc1)c1ccc2n1CCC2C(=O)O (centres undefined), CCc1nnc(SC(CC)C(=O)NCCOC)c2cc3occc3n12 (centres undefined) -27.8%, CCc1cccc(NC(=O)Cn2c(=O)n(Cc3ccccc3)c(=O)c3c(C)c(C(=O)N(C)C)sc32)c1 -19.4%, CN1CCN(C(=O)c2cnn(-c3ccccc3)c2C2CCN(C(=O)OC(C)(C)C)CC2)CC1 -15.6%, CCOc1ccccc1N(C)C(=O)c1cc(S(=O)(=O)NCc2ccc(C)cc2)ccc1F -36.3%, Cc1cccc(NC(=O)CSc2nc(C)cc(C)c2C(=O)Nc2ccc(Cl)cc2)c1 -13.6%, Cc1ccc(C)c(NC(=O)Cn2cc(S(=O)(=O)N3CCCC3)c(S(=O)(=O)N3CCCC3)c2)c1 -2.97%, COc1ccc(Cl)cc1NC(=O)c1cc(=O)c2cc(C)cc(C)c2o1 8.77% [at 11.5 µM, percent change from vehicle, -100% = no light], CCc1nn2c(=O)cc(COC(=O)c3cccc(NC(=O)COc4ccccc4F)c3)nc2s1 -35.2%, CCc1ccc2c(c1)c(=O)c(S(=O)(=O)c1ccccc1)cn2CC(=O)Nc1cc(C)ccc1C -5.66%, COc1cc(NC(=O)CN(C)S(=O)(=O)c2ccc3c(c2)CCCC(=O)N3)cc(OC)c1OC -18.7%, CCC(=O)C1=C(c2cccc([N+](=O)[O-])c2)N(C(=O)CC)n2c(nnc2C2CCCCC2)S1 -18.6%, OCc1ccccc1O -1.16%, COc1ccc(-c2nc3ccccc3o2)cc1NC(=O)COc1c(C)cc(Cl)cc1Cl 28.3%, C=C1C(=O)OC(CCCCCCCC)C1C(=O)O (centres undefined) -47.9%, Cc1ccc(CCNC(=O)Cn2ncc3c(=O)oc4ccccc4c32)cc1 -15.9%, Cc1ccccc1-c1nc(CS(=O)(=O)CC(=O)Nc2c(C)cccc2C)c(C)o1 -38.7%, Cc1cccc(-c2nc3c4ccccc4n(CC(=O)Nc4cccc(F)c4)c(=O)n3n2)c1 21.9%, CCN(CC)CCCC(C)Nc1nc(C)cc(Nc2ccc3nc(C)cc(N)c3c2)n1 (centres undefined) -3.04%, CC(C)(C)OC(=O)N1CCC(c2c(C(=O)N3CCN(c4ccccc4F)CC3)cnn2C(C)(C)C)CC1 -31.6%, COC(=O)c1cc2sc(C)cc2n1Cc1nc(-c2cccc(Br)c2)oc1C 1.6%, CCOC(=O)C1CCN(c2csc3ccc(C)cc3c2=O)CC1 -21.5%, COc1ccc(N2C(=O)CS(=O)(=O)C23C(=O)N(Cc2ccccc2)c2ccccc23)cc1 (centres undefined) -23.7%, COc1cccc(-c2nc(S(=O)(=O)c3ccc(C)cc3)c(NCc3ccccc3)o2)c1 -3.86%, CCN1CCN(c2cc(C)c3cc(NC(=O)c4cc(OC)c(OC)c(OC)c4)ccc3n2)CC1 -13.4%, CCOc1ccc(-c2nc(CSCC(=O)NCCc3ccccc3)c(C)o2)cc1 -49.5%, Clc1cccc(N2CCN(c3nc4ccccc4c4nc(-c5ccccc5)nn34)CC2)c1 -5.02%, CCc1ccc2oc(C(=O)N(Cc3cccc(Cl)c3)Cc3ccco3)c(C)c2c1 -25.8%, Cc1cc(C)cc(NC(=O)Cn2c(=O)n(CCC(C)C)c(=O)c3cccnc32)c1 -15.1%, Cn1c(=O)cc(SCC(=O)NCCc2ccc(Cl)cc2)c2cc(Cl)ccc21 -19.1%, COc1cccc(CNC(=O)CCCn2c(=O)c3cccn3c3ccc(F)cc32)c1OC -11.3%, COc1ccc(-c2cc(C(C)=O)c(C)n2CCC(=O)Nc2cccc(C)c2C)cc1 -16.4%, O=C(Cn1c2ncccc2c(=O)n1-c1ccccc1)Nc1cccc(C(F)(F)F)c1 -23.1%, O=C(CSc1nc2ccccc2c2nc(-c3ccccc3)nn12)Nc1ccc(F)cc1 2.85%
